# According to PubChem BioAssay AID1508642 (National Center for Advancing Translational Sciences (NCATS), 2021):
# Screen size: about 43,000 compounds; about 200 (0.47%) were called active. Another 12% or so got no clear call; they are omitted. Calls follow the shape of the dose curve; as a rule, active = well fitted cell-killing curve with a large enough effect; inconclusive = small, poorly fitted or top-dose-only effect, or effect the other way; inactive = flat fitted curve, though single readings scatter. The list shows a part of the results.
# Assay: Cell viability qHTS assay in S16 Pmp22-F2sN cells; also: nearly all actives have a fitted effect of over 65% in size
# Conditions: S16 Pmp22-F2sN Schwann cells (luciferase reporters placed in the Pmp22 gene) viability, CellTiter-Glo, 24 h; series mostly up to 57.5 µM; activity change, negative = cytotoxicity: at the top concentration
# Method in brief: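 Luminescence from CellTiter-Glo, read by CCD camera after a 15 min room-temperature incubation, served as the viability signal. Reporter Schwann cells (S16 Pmp22-F2sN) had been treated with pin-transferred compounds for 24 h at 37C.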
# % is scaled to controls: 0 for no effect and ±100 for the full control effect.
row,SMILES,"activity change, negative = cytotoxicity"
1,CCn1c2ccccc2c2cc(CN3CCN(Cc4ccccc4Cl)CC3)ccc21,inactive: -3.76%
2,COc1cccc(NC(=O)CSc2nc3cc(OC)c(OC)cc3c3nc(-c4ccccc4)nn23)c1,inactive: -1.5%
3,COc1cc(OC)c(NC2(c3ccccc3)C(=O)c3ccccc3C2=O)cc1Cl,inactive: 0.5%
4,O=C(Nc1ccc(OC(F)(F)F)cc1)c1nc2ccccc2nc1N1CCCCC1,inactive: -4.84%
5,CCc1ccc(NC(=O)Cn2nc3c4ccccc4n(Cc4ccccc4)cc-3c2=O)cc1,inactive: -4.51%
6,C[C@H](NC(=O)OC(C)(C)C)c1nnc(SCc2c(F)cccc2Cl)o1,inactive: 2.92%
7,CCOc1ccc(-c2cc(OC(=O)c3ccc(OC)cc3)c3c(C)oc(C)c3c(=O)c2)cc1,inactive: -0.148%
8,CCOc1ccc(C(=O)N(Cc2sccc2C)C2CCS(=O)(=O)C2)cc1 (stereo not drawn),inactive: -3.53%
9,O=C1CC(c2cccc(O)c2)c2c(nc(SCc3ccccc3F)[nH]c2=O)N1 (stereo not drawn),inactive: -10.2%
10,O=C(c1ccc(CSc2nc3ccncc3n2Cc2ccc(F)cc2)cc1)N1CCCCCC1,inactive: -19.9%
11,COCCCNC(=O)c1cc2c(=O)oc3ccc(C)cc3c2s1,inactive: -29.8%
12,CCc1nc2ccc(C(=O)N3CCN(c4cccc(C)c4C)CC3)cc2nc1CC,inactive: 6.76%
13,Cc1ccc(-c2nc3c4ccccc4[nH]c(=O)n3n2)cc1,inactive: 5.02%
14,O=C(Nc1c(C(=O)Nc2ccc(F)cc2)oc2ccccc12)c1cc2ccccc2o1,inactive: -3.87%
15,COc1ccc(Cn2c(=O)c3cccnc3n(CC(=O)Nc3ccc(C)c(F)c3)c2=O)cc1,inactive: 11%
16,COc1cc2c(cc1OC)C(COc1ccc3c(C)cc(=O)oc3c1)N(C(=O)C(C)C)CC2 (stereo not drawn),inactive: 5.16%
17,CCOC(=O)c1nc(Nc2ccc(C(C)=O)cc2)c2ccccc2n1,inactive: 1.38%
18,Cc1cccc(-n2ccnc2SCC(=O)Nc2ccc(F)cc2F)c1C,inactive: 4.13%
19,Cc1cc(Oc2c(C(F)(F)F)oc3c(CN4CCC(C)CC4)c(O)ccc3c2=O)cc(C)c1Cl,inactive: 23.5%
20,Cc1ccc(C)c(CNC(=O)c2ccc3c(c2)nc2n3CCCCC2)c1,inactive: 0.605%
21,COc1ccc(S(=O)(=O)NCCCO)cc1-c1nnc2c3ccccc3c(C)nn12,inactive: -6.95%
22,CCOc1ccc(NC(=O)Cn2cc(C(=O)c3ccc(CC)cc3)c(=O)c3cc(OC)c(OC)cc32)cc1,inactive: 13%
23,COc1ccc(NS(=O)(=O)c2ccc3c(c2)CCN3C(=O)CCC(=O)O)cc1Cl,inactive: -4.46%
24,COc1ccc2cc3cc(C(=O)N4CCN(c5cccc(Cl)c5)CC4)sc3nc2c1,inactive: 0.609%

row,SMILES,"activity change, negative = cytotoxicity"
1,COc1ccc(-c2c3c(=O)n(C)c(=O)n(C)c3c3c(-c4cccc(C)c4)nc4ccccc4n23)cc1,inactive: -23.7%
2,Cc1cc(NC(=O)CCS(=O)(=O)c2cc(Br)cc3c2N(C(=O)C2CC2)CC3)ccc1Br,inactive: -8.88%
3,CCc1ccc(-n2c(=O)c3sc4ccccc4c3n(CC(=O)NC3CCCCC3)c2=O)cc1,inactive: -11%
4,Cc1ccc(NC(=O)Cn2nc(-c3ccncc3)ccc2=O)cc1Cl,inactive: 0.49%
5,CCOC(=O)c1ccc2c(c1)N(C(CC)C(=O)Nc1ccccc1OC)C(=O)c1ccccc1S2 (stereo not drawn),inactive: 5.81%
6,CC(C)CCNC(=O)CSc1nc2ccccc2nc1Cc1ccccc1,inactive: 18.3%
7,CCc1ccc(NC(=O)C(C)n2nnc3sc(-c4ccccc4)cc3c2=O)cc1 (stereo not drawn),inactive: -0.903%
8,CCOC(=O)c1cccc(NC(=O)C2CCCN(S(=O)(=O)c3ccc4c(c3)oc(=O)n4C)C2)c1 (stereo not drawn),inactive: -15.3%
9,COc1ccc(NC(=O)/C(C#N)=C/c2cc(C)n(-c3ccc(F)cc3)c2C)cc1,inactive: 4.31%
10,C=CCC(CC=C)(CNC(=O)C(=O)Nc1cc(C)ccc1OC)c1ccc(OC)c(OC)c1,inactive: -13%
11,CCOc1ccc(C2=NC(c3ccc(OC)cc3)=Nc3ccc(Cl)cc3N2)cc1,inactive: -8.6%
12,COc1ccccc1CNC(=O)CN1C(=O)COc2ccc(S(=O)(=O)N3CCC(C)CC3)cc21,inactive: 3.88%
13,O=C(Cn1cc(S(=O)(=O)N2CCCC2)c(S(=O)(=O)N2CCCC2)c1)Nc1cccc(F)c1,inactive: 5.61%
14,Cc1ccc(CN(C(=O)COc2ccc(Cl)c(C)c2)C2CCS(=O)(=O)C2)o1 (stereo not drawn),inactive: -3.64%
15,Cc1nc2nc(SCC(=O)O)nn2c(C)c1Cc1c(F)cccc1Cl,inactive: 8.22%
16,Cc1csc2nc(COC(=O)c3ccccc3NC(=O)COc3ccccc3F)cc(=O)n12,inactive: -10.7%
17,CC(C)C(=O)N(Cc1ccccc1)S(=O)(=O)c1ccc2c(c1)oc(=O)n2C,inactive: 0.254%
18,Cc1nc2nncn2c(NCc2ccc(Cl)cc2)c1C,inactive: -20.7%
19,Cc1ccc(-n2c(=O)c3c4c(sc3n(Cc3cccc(Cl)c3)c2=O)CCC4)cc1C,inactive: 0.921%
20,O=c1c2cn[nH]c2nc(SCc2cccc(Br)c2)n1-c1ccc(Cl)cc1,inactive: -18.7%
21,COc1ccccc1CNC(=O)NCc1noc2ccc(C)cc12,inactive: -2.92%
22,Cc1ccn2c(Nc3ccc4c(c3)OCO4)c(-c3ccc(N(C)C)cc3)nc2c1,inactive: -12.4%
23,CCOc1ccc(NC(=O)CC2C(=O)N(c3ccccc3)C(=O)N2C2CCCCC2)cc1 (stereo not drawn),inactive: -25.9%
24,CCOC(=O)c1c(-c2ccccc2)csc1NC(=O)c1cc(-c2ccc(Br)cc2)on1,inactive: 2.87%
